± gives the standard deviation of the averaged measurements. The list shows a part of the results.
Each sequence was assayed on PfAP2-G AP2 domain (GST-tagged) (assay: gcPBM binding intensity (ln(normalized median fluorescence intensity)); higher = stronger DNA binding).
Method in brief: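 Each value is the highest Masliner-normalised natural-log median intensity across replicate spots of either orientation of a probe. The probes were primer-extended double-stranded 36-bp intergenic genomic sequences on an Agilent 4 × 180k array, alongside negative controls, exposed for 1 h to GST-tagged P. falciparum DNA-binding domains expressed in E. coli. Bound protein was picked up with Alexa488 anti-GST antibody and scanned at 488 nm.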

| Sequence | gcPBM binding intensity (ln) |
| --- | --- |
| TTTAAAAAATAATATTGTACTATTCTCCCAATTTCT [XGTACX_site7079] | 10.9 ± 0.59 |
| TTTTTATATAATTTAACACACATTTCATATAAAAAA [CACACA_site3103] | 9.975 ± 0.092 |
| ATGTGAAAATAAGACACACTCAAAAGGTTTATATTA [CACACA_site4595] | 9.81 ± 0.057 |
| ATATACTGTATGAAAGCACACATACTTATTACTAAC [CACACA_site9384] | 10.03 ± 0.078 |
| AAAAAATGAAAAAACTGTACGCAATTTTGTTTTTAT [XGTACX_site2299] | 11.7 ± 1.2 |
| AAGTTTTTTTTTATCACACACAAAAAAAAAAATATA [CACACA_site1362] | 10.2 ± 0.41 |
| CTATATATAACCCATGTGCACTTTTTATGTACAATA | 11.5 ± 1 |
| TCTTTCCTTATTAAAACACACAAATACATTATTTAA [CACACA_site2147] | 9.98 ± 0.18 |
| CCTTTTTCTACTTTCTCACACATATTAAGAATTATA [CACACA_site5621] | 10.3 ± 0.25 |
| AAAAAAAAAAAAAAGTGTACCTTCAAAATAATATTG [XGTACX_site2844] | 11.3 ± 0.49 |
| ATAAATATAAAACACACACACATATTATATATATAT [CACACA_site3064] | 10.1 ± 0.29 |
| TTTCTTCTTCAATGTTGTACTTTTCTCTTTTCTTAA [XGTACX_site1017] | 11.4 ± 0.73 |
| GTAGGTGTTTTTGGTTGTACATATAAATATATATAC [XGTACX_site3380] | 11.3 ± 0.8 |
| TTTTTTTTTTTTAATTGTACTTATTAAAAAAAGCAA [XGTACX_site8713] | 11.1 ± 0.81 |
| GTTCATAAAAATTTTTGTACCCATAAAATATTCCTC [XGTACX_site8611] | 11.2 ± 0.65 |
| TATAAACATTAAAGGTGTACAATTTAATTTCAATTT [XGTACX_site2944] | 11.3 ± 0.83 |
| GTTCTTCCTTGTAAATGTACAAATACAAAATGTTCC [XGTACX_site6738] | 10.8 ± 0.49 |
| TATTTTCATTATACTACTTCGAAGATACCCTTTTTT [CACACA_negctrl_site256] | 10.4 ± 0.3 |
| GGAAATTAACAGAACACAATGTAACAATTTCTAACA [CACACA_negctrl_site1250] | 9.88 ± 0.085 |
| GATATATATGTTCACACACACATGGAAATATATATA [CACACA_site4371] | 10.2 ± 0.2 |
| TTAAGATCCTAAAAAACACACAATTGCGAATAATAA [CACACA_site6005] | 10.3 ± 0.16 |
| ATATCATAAAAAATGTGTACATATATGAACATATAA [XGTACX_site2239] | 11.5 ± 0.64 |

| Sequence | gcPBM binding intensity (ln) |
| --- | --- |
| ATAAATTTTTTTTTTTTTTTTTTTTTTTTTTTTTTT [CACACA_negctrl_site508] | 11.2 ± 0.73 |
| ATTTTTTTCATAGACACACACAATATATCTGTTTCC [CACACA_site3023] | 10.12 ± 0.064 |
| TGTTAAAATTATTTGGTGCACTTGTTTTACCTTATT | 10.5 ± 0.45 |
| TATATTTATTATAACACACACATATAAATATTATAG [CACACA_site6726] | 10.04 ± 0.064 |
| TATGCACTTTAGGGCAGTACGTCAACATTATCTTTA [XGTACX_site3382] | 10.9 ± 0.59 |
| CCTCATACGAAATATAAACACACATACAATAAATAA [CACACA_site8620] | 10.05 ± 0.071 |
| TCTCATAGTAAACACACACACACACCCACATATATA [CACACA_site5034] | 10.3 ± 0.18 |
| CATTATTCTTTTAATATACACACTTTGTCTTTTCGC [CACACA_site2762] | 10.1 ± 0.17 |
| ATATTATTATATATAGTGCATATTATTATTTTTATT | 9.825 ± 0.049 |
| TTTTTTTTTTTTAATGCACACAATATATAATATGTA [CACACA_site3694] | 10 ± 0.49 |
| AAGATAAAATGATGCACACAAAAGGGTGTAATATAT [CACACA_site1706] | 10.13 ± 0.049 |
| GAAGTTTTCTTAAAGATGCACTTTTTAAAAATAAAA [GTGCAC_site9941] | 10.2 ± 0.42 |
| TCTTCTTTTTTTTTTTTGTATTATTATAAATATTAT [CACACA_negctrl_site1668] | 9.71 ± 0.071 |
| TGTACGTTTTATAACACACACACAAAAAAAAAAAAA [CACACA_site3875] | 10.8 ± 0.48 |
| TGTAATAATATTTATGTGCACATATATTAAACTATA [GTGCAC_site9584] | 10.5 ± 0.3 |
| TCATTTCACAGACACACACACACAAGATATTTCCTT [CACACA_site7774] | 10.1 ± 0.11 |
| TTTTTTTTTTTTCAATCACACATGTTTTAATTATTT [CACACA_site5532] | 9.685 ± 0.092 |
| TATATATATATATATATACACACTTGTGCAGAATAT [CACACA_site2216] | 10.1 ± 0.42 |
| ATATTCATGTTGATATGTACTTATTCTATATTGAAT [XGTACX_site8347] | 11.2 ± 0.86 |
| ATCAGTGATTAGGTTATATATAAAAATGAACTAATA [GTGCAC_negctrl_site647] | 9.855 ± 0.049 |
| TATGATATTTATATGCGTACTGAAGTATGCCTATTT [XGTACX_site6133] | 11.2 ± 0.79 |
| AAAAAATTAAAAATACGTACATATATACATATATAT [XGTACX_site4621] | 11.4 ± 0.92 |

Reference: the supplement of paper PMC11417369
